Measured values: the supplement of paper PMC3334620
The full ranking holds about 33,000 sequences; the median of “E-score (-0.5 to 0.5)” is about -0.035, and the highest 2% start at about 0.35. The list shows a part of the results.

Target: T1, Pdr3 (UniProt P33200)
T1 sequence: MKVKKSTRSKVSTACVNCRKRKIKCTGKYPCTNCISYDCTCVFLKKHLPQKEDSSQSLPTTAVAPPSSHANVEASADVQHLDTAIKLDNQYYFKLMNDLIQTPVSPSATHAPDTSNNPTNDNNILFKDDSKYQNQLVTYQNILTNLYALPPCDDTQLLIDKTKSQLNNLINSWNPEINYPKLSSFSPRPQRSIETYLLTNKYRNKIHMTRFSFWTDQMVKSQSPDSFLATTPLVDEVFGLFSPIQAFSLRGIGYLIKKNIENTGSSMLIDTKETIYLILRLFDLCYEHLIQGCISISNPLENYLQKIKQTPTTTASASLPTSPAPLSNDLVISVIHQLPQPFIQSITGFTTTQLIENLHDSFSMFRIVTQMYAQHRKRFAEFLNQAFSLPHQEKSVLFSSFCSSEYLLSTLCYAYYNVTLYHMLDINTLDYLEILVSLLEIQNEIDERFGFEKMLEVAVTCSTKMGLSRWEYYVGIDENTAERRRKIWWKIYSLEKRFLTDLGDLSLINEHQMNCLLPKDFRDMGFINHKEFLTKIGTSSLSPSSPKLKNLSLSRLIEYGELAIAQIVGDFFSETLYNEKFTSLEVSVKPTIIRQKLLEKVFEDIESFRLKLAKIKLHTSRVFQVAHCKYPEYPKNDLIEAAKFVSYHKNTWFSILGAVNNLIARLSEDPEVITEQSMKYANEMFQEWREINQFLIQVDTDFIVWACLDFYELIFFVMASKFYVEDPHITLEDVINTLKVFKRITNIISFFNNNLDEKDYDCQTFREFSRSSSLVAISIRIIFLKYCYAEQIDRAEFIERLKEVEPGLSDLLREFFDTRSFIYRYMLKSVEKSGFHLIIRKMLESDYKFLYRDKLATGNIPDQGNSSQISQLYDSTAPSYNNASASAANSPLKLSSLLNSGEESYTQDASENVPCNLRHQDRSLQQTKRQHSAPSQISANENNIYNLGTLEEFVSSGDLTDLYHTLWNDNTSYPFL
Experiment: PBM E-score (8-mer binding enrichment) (E-score (-0.5 to 0.5)); higher = stronger / more preferred TF binding; most listed sequences are background and not binding sites
Conditions: protein concentration: 200 nM; construct: GST-full length
How it was run: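 Masliner-normalised scans of fluorescent anti-GST signal were the basis for scoring. That signal came from GST-tagged yeast transcription factors applied at about 100-200 nM to double-stranded universal all-10-mer Agilent arrays on fresh or once-stripped slides. Each ungapped eight-base word, pooled with its reverse complement, received an E-score from the Universal PBM Analysis Suite.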

Sequence | PBM E-score
AAAAGCAA | -0.0203
ATCCCGAC | 0.331
ATTGGTAG | -0.142
GCCGTAGA | 0.161
GGTAAGTA | -0.0804
ATGCGTTA | -0.0252
CGTAGTAG | -0.055
ATACGGAG | 0.242
ATTTCGAG | -0.0365
AATAGCAA | -0.049
GAATCGCA | -0.00329
CGTAGCGC | -0.214
GCTTCTTA | 0.0605
ATCGTTAG | -0.0972
AATCGAGA | 0.008
AACCTGCT | 0.0169
CCGCGCTC | 0.244
CATTTACG | 0.0492
GGTCTTTA | -0.0612
ATGCGAAC | 0.0308
TGAAGCAA | -0.204
CCTGACTA | -0.0041
ATAATCTC | 0.0241
GTTTGTCA | -0.0177
ATGCCTAC | -0.168

Sequence | PBM E-score
AGAATTAG | -0.172
AAATAAAG | -0.0755
TCACTAAA | -0.0987
CGACTAAA | -0.0874
AGCACAGG | -0.109
ATCACGAA | -0.0534
AGAACTGC | -0.0982
GACAGTTA | 0.0178
AGATCACG | 0.0989
TCCGCGAA | 0.314
AATTGTAG | -0.156
CCGCGAAG | 0.267
AAAAGCGG | 0.119
CGACGCCA | 0.0156
AGTGTCCA | -0.122
ACCTCGAT | 0.165
AAGACAGG | 0.0139
GAGAGTCC | -0.0816
CTTTATGA | -0.299
CACGTTTA | -0.189
CTCACCTA | -0.17
GGTGTGCA | -0.178
TACTCCTA | -0.342
GTGAACCA | -0.0802
CTAGTTCC | 0.31

Sequence | PBM E-score
CTCCAAAC | 0.0388
CCGGTCCA | 0.0798
AGCTTAGG | -0.0685
ACCTAGAC | 0.00523
CAGGTCCG | 0.257
AGTAGGTC | -0.0773
AGGTCCCA | -0.211
CCAGGTGC | 0.00594
CGGGGGAA | 0.276
AGTAGGAA | -0.31
CTTAATCC | 0.0482
CATCGGTA | 0.0816
GCAGTCCC | 0.0813
GGGGTGAA | -0.0358
GTTCTTAA | 0.0247
CTTTCTGC | -0.0975
GTCATAGA | -0.0724
CCGTGAAG | 0.0621
ATTGGTGG | -0.0235
ACGTACAT | -0.0677
ATTGCTCG | 0.0872
CCGTCTAC | 0.12
CTTTCAAA | 0.0688
CACGCCTC | -0.177
CCGAGGCA | 0.117

Sequence | PBM E-score
AAACGGAT | 0.377
GCCGAATA | 0.234
GCACTTAA | -0.0886
ACCTGACT | -0.131
AACTATAG | -0.138
GGTGCACC | -0.0384
CAGAATCA | -0.0974
CTCGACCA | -0.185
CCATGCGC | 0.0856
AATTGGAC | -0.00087
ACGCAGTC | -0.282
GGCTACGA | -0.168
AGGACCCA | -0.256
CATCATCC | -0.015
AATGTACA | 0.0279
CCTAGTAA | -0.0473
CGTTAGTC | -0.0535
ATCTCCCG | 0.23
ACTAGGAA | -0.168
CCGCCGAC | 0.146
ATCGAATC | 0.1
GCAAATGC | -0.19
AATTAGGT | 0.00648
CGGACGTA | 0.0483
AGCGACCA | -0.0054

Sequence | PBM E-score
CTCTGAAA | -0.0648
ATTAAGCC | 0.0878
AAGATTCT | -0.165
GGATGTAC | -0.015
GTTCACGA | 0.0586
CTCTACAG | -0.224
CAGTTCTA | -0.074
ATGGCTAA | -0.132
ATAGCTAA | -0.088
AAACGCGG | 0.245
CTACTTTA | -0.11
CTCGTGTC | -0.13
TGAGTCAA | -0.11
AGCCAGCA | -0.229
AACGGTAC | 0.146
AATGATCA | -0.153
GCATTCGC | -0.125
CATCTATA | -0.0337
CCGCCCGG | 0.407
GAGCAGTA | 0.0657
GCCTCAGC | -0.0249
AATTATGC | 0.0699
ACTGTTCT | -0.129
CATTAACC | 0.0602
ATCAGTCG | -0.0314

Sequence | PBM E-score
ATGAATTA | -0.0872
CCTACGTC | -0.172
AAAACCAA | -0.0135
ATTCACTC | -0.0568
CATTCCCG | 0.274
ATACTTGG | -0.157
GGGGAGTA | -0.092
AATGGGTG | 0.213
ATCTATGG | -0.0734
GTGTCAAA | -0.0534
AAAGGCCG | 0.196
ACGAGACA | -0.0207
ATTGGCTC | -0.0435
CGAAGGTC | -0.0506
ATCGGGGG | 0.0408
ACGCCCTC | -0.0801
GAATACAA | 0.228
AGCGAAAT | 0.0309
GCGAAAGA | -0.0453
GACAAAAA | 0.0605
CGTTGCGC | 0.0971
CAGTGATA | -0.0345
AATTTAAG | -0.129
AATTCCAG | 0.0797
CATCCTCA | -0.105

Sequence | PBM E-score
CCATTGGG | -0.253
GGCAGTAC | -0.114
ATTTCAAG | -0.201
AAGAGAGA | -0.212
GCCGGTAC | 0.0986
GTATACAA | -0.0525
GCGCATCC | 0.0589
ACATGTCC | 0.0604
AAAAGCTT | -0.218
CAGTACAA | -0.159
GTACGGGA | 0.217
AATCTCAC | -0.222
GCCGGTAA | 0.293
CCGGCCTC | 0.156
CATCTCGA | -0.103
ATAGTTCC | 0.308
AACTAACT | -0.0733
GCAGAACC | -0.0949
CAAATTCG | 0.169
TCAAAAGA | -0.0504
ACCTGCGA | -0.146
CTGCTCAC | -0.295
